# About 230 (0.21%) of roughly 110,000 compounds showed an effect of 50% or more. The list shows a part of the results.
# Target: DPAP1 (Plasmodium falciparum, UniProt Q8IIJ9)
# Assay: primary screen, percent inhibition; read by cleavage of a fluorogenic dipeptide substrate; higher = more effect of the substance
# Design: species or system P. falciparum D10 trophozoite lysates; single well
# 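Further: 30 min substrate incubation versus DMSO and 10 µM JCP410 controls.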
# Chain of DPAP1 (Q8IIJ9 whole entry, looked up): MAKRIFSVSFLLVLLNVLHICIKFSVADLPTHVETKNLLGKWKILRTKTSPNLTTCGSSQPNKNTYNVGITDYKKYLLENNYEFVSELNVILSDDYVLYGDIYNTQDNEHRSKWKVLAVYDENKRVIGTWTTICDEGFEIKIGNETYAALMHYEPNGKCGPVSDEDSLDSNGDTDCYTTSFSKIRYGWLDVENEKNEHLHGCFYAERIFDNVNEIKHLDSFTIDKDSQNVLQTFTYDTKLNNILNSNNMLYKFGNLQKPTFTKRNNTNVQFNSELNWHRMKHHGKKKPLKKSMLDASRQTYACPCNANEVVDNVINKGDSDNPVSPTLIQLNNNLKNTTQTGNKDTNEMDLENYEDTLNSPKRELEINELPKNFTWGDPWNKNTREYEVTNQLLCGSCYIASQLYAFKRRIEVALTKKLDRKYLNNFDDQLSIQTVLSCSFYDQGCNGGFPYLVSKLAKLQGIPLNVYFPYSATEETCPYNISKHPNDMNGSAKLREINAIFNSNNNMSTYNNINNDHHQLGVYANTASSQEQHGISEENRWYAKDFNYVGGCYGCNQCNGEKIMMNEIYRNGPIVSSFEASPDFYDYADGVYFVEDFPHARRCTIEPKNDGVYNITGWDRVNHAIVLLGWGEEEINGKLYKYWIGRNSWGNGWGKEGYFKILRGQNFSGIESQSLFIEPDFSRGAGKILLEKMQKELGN
row,Compound,% Inhibition @ 10 uM [%]
1,N#Cc1ccccc1CSc1nnc(N)s1,2.8
2,COc1ccc(NC(=O)CN(c2ccc(C34CC5CC(CC(C5)C3)C4)cc2)S(C)(=O)=O)cc1,2.91
3,Cc1nc(C(=O)c2ccccc2C(F)(F)F)cc2c1[nH]c1ccccc12,1.42
4,Cc1ccc(-c2nc3ccccc3c(=O)n2-c2cccnc2)cc1,4.74
5,CC(CNc1nc2ccccc2c2nc(-c3cccnc3)nn12)c1ccccc1 (centres unmarked),2.6
6,COCCCNc1oc(-c2ccc(C)cc2)nc1C#N,-1.33
7,O=C(Nc1cccc(NC(=O)C2CC2)c1)C1CC1,-7.15
8,Cc1cccc2sc(NC(=O)C3CCCN(S(=O)(=O)c4cccc5nonc45)C3)nc12 (centres unmarked),-9.42
9,COc1cc(S(=O)(=O)N2CCc3ccccc3C2)c(OC)cc1Cl,-3.13
10,COc1ccc(C(=O)O)cc1COc1ccccc1Br,-10.9
11,c1ccc(-c2nc3sc4c(N5CCOCC5)ncnc4c3c3c2CCCC3)cc1,-3.13
12,CCCCNC(=O)COCc1cc(-c2ccc3c(c2)OCO3)on1,2.87
13,COCCNC(=O)Cn1ncc2c(C)n(Cc3ccc(F)cc3)c(C)c2c1=O,-0.447
14,O=C(NC1CCCCC1)c1cc(-c2ccncc2)nc2ccc(S(=O)(=O)N3CCOCC3)cc12,2.35
15,O=C(Cn1nc(-c2ccccc2)c2ccccc2c1=O)N1CCC(Cc2ccccc2)CC1,-6.78
16,COC(=O)Nc1sc2c(c1C(N)=O)CCCCCC2,33
17,CCc1ccc(NC(=O)C23CCC(C)(C(=O)C2=O)C3(C)C)cc1 (centres unmarked),6
18,COc1ccc(NC(=O)c2cccc(OC(F)F)c2)cc1OC,1.38
19,CN(C)c1ccc(/C=C2\SC(N3CCCCC3)=NC2=O)cc1,16.5
20,CC1CC(=O)C2=C(C1)OC(N)=C(C#N)C2c1ccc(C(F)(F)F)cc1 (centres unmarked),-3.13
21,COc1cc(NS(=O)(=O)c2ccc(Nc3nc(-c4cccnc4)cs3)cc2)nc(OC)n1,11.2
22,CCOc1ccc(C2C(C#N)=C(N)N(c3ccc(C)cc3)C3=C2C(=O)CCC3)cc1 (centres unmarked),-4.48
23,C#CCOc1ccc(/C=C2/NC(=O)N(CC)C2=O)cc1OCC,-9.36
24,CC(NC(=O)C1CC(c2ccc(F)cc2)=NO1)c1ccccc1 (centres unmarked),-2.16
25,Cc1cc(/C=C2/C(=N)N3C(=NC2=O)SN=C3S(=O)(=O)CC(C)C)c(C)n1-c1ccccc1,-1.58

row,Compound,% Inhibition @ 10 uM [%]
1,CCOc1cc(C2CC(=O)NC3=C2C(=O)CC(C)(C)C3)cc(Br)c1O (centres unmarked),1.31
2,CC(C)NC(=O)Cn1ccc2cc(S(=O)(=O)N3CCCCC3)ccc21,-2.39
3,FC(F)Oc1ccccc1C1CC(c2ccc(Br)s2)Nc2ncnn21 (centres unmarked),0.219
4,O=C(C1CC2CCC1C2)N1CCN(C(=O)C2CC3CCC2C3)CC1 (centres unmarked),5.51
5,O=C(O)/C=C/C(=O)OCC1CCCO1 (centres unmarked),-2.66
6,CCC(=O)Nc1nn2c(-c3ccc(C)cc3)nnc2s1,-1.26
7,CN(C)CCN(Cc1ccccc1)Cc1cccc(Cl)c1,-2.34
8,COc1cccc(/C=C2/N=C(c3cccc4ccccc34)OC2=O)c1OC,3.9
9,Cc1ccccc1S(=O)(=O)Cc1ccc(C(=O)n2ccnc2)o1,-4.53
10,Cn1c2ccccc2c2c(C(=O)NCC3COc4ccccc4O3)cn(C3CCCC3)c(=O)c21 (centres unmarked),-5.27
11,OCCN1CCN(Cc2cc(F)ccc2F)CC1,1.9
12,COc1ccccc1/C=C/C(=O)c1cc2c(nc1C)CCCC2,-3.79
13,Cc1ccc(S(=O)(=O)N(CC(=O)NCCc2ccccc2)Cc2ccccc2)cc1,-7.18
14,O=C(Nc1nc(C23CC4CC(CC(C4)C2)C3)cs1)c1ccc2c(c1)OCO2,9.11
15,O=C(c1ccc([N+](=O)[O-])o1)N1CCN(C(=O)c2ccc([N+](=O)[O-])o2)CC1,-0.216
16,O=C(Cn1cc2c(n1)CCCC2)NCc1ccc2c(c1)OCO2,0.137
17,CCOC(=O)C1=C(C)N=c2s/c(=C\c3cccc(O)c3)c(=O)n2C1c1cc(OC)ccc1OC (centres unmarked),-0.339
18,COc1ccc(NC(=O)CN(c2cc(C)ccc2OC)S(C)(=O)=O)cc1,-0.796
19,N#CC1=C(SCc2ccccc2)NC(=O)CC1c1cccc2ccccc12 (centres unmarked),-0.294
20,Fc1ccccc1-n1nnnc1SCc1ccc(Cl)cc1Cl,2.94
21,C=CCn1c(SCc2c(C)noc2C)nc2sc(-c3ccccc3)cc2c1=O,-7.23
22,Oc1ncc(COCC(F)(F)C(F)F)c(O)n1,-5.42
23,COc1ccc(C(=O)/C=C/c2ccc(N3N=C(c4ccccc4)CC3c3ccccc3)cc2)cc1 (centres unmarked),-5.23
24,COc1ccc(C(=O)/C=C/c2ccc(-c3ccc(OC)cc3)o2)cc1,3.34
25,Nc1ncnc2c1ncn2CC(O)CO (centres unmarked),-4.27

row,Compound,% Inhibition @ 10 uM [%]
1,CCOC(=O)N1CCC(NC(=O)Cn2c3ccccc3c3cnnc(O)c32)CC1,3
2,C=CCOc1cccc(C2c3c(n[nH]c3-c3cc(C)ccc3O)C(=O)N2CCO)c1 (centres unmarked),-6.64
3,CC1=NC2=C(C(=O)CC(C)(C)C2)C(c2cccc(Cl)c2)/C1=C(\O)OC(C)C (centres unmarked),-2.18
4,Cc1ccc(S(=O)(=O)NCCOc2nc(N3CCOCC3)nc(N3CCOCC3)n2)cc1,5.5
5,COc1ccccc1N1CCN(Cc2cccc(O)c2)CC1,1.4
6,Cc1nc2ccccc2nc1OCC(=O)c1ccc(Cl)cc1,-3.23
7,Clc1ccc2c(c1)c1c(n2Cc2ccccc2)-c2n[nH]cc2CC1,4.57
8,CC(C)c1ccc(-n2nnc(-c3nc(-c4ccc5c(c4)OCO5)no3)c2N)cc1,4.23
9,CC1=C(C)CC(C(=O)Nc2ccc(Br)cc2)C(C(=O)O)C1 (centres unmarked),-3.39
10,O=C(CSc1ccccn1)Nc1ccc(F)cc1,-1.06
11,Cn1cc(S(=O)(=O)N2CCOCC2)cc1C(=O)Nc1nccs1,-2.17
12,CCCN1Cc2cccc(C(=O)NCCc3ccccc3)c2C1=O,-2.29
13,O=S(=O)(/N=C/c1ccc(Br)cc1)c1cccs1,2.09
14,Cc1ccnc(NC(c2ccc(OC(C)C)cc2)c2ccc3cccnc3c2O)c1 (centres unmarked),-8.95
15,COCCNC(=O)c1ccc(CS(=O)(=O)c2c(Cl)cccc2Cl)o1,-4.71
16,COC(=O)c1sccc1-n1c(S)c(C#N)c(N)c(C#N)c1=N,-2.21
17,CC(C)C[C@H](NC(=O)OCc1ccccc1)C(=O)NC(C#N)CCS(C)(=O)=O (some centres unmarked),-3.04
18,Cc1sc(NC(=O)c2cc(-c3ccc4c(c3)OCO4)nc3ccccc23)c(C(N)=O)c1C,6.08
19,CCN(CC)C(=O)CSc1nc(-c2ccc(OC)cc2)nc2c1Cc1cccc(OC)c1O2,6.55
20,NC(=O)CSc1nnc(CSc2ncccn2)n1-c1ccccc1,-2.45
21,O=C(NC(C(F)(F)F)C(F)(F)F)N1CCOCC1,-6.06
22,O=C(c1cc2nc(-c3ccc4c(c3)OCO4)cc(C(F)(F)F)n2n1)N1CCN2CCCC2C1 (centres unmarked),4.49
23,Cn1nc(-c2ccccc2F)c2cc(C(=O)N3CCc4ccccc4C3)sc21,-2.16
24,Cc1ccc(-c2ccc(C3C(C#N)=C(N)OC4=C3C(=O)CCC4)o2)cc1 (centres unmarked),-0.864
25,O=[N+]([O-])c1ccc(CN2CCSCC2)cc1,1.38

row,Compound,% Inhibition @ 10 uM [%]
1,CN1C(=O)c2ccccc2C(C(=O)NCCCN(Cc2ccco2)C2CCCC2)C1c1cccs1 (centres unmarked),-2.97
2,Fc1cccc(CN2CCc3c([nH]c4ccccc34)C2)c1,-0.197
3,O=C(NCc1ccco1)c1cc(-c2ccc(Br)cc2)on1,2.65
4,COc1ccc(C2c3[nH]c4ccccc4c3CC3C(=O)N(C)C(=S)N32)cc1OC (centres unmarked),3.15
5,Cc1c(Cl)cccc1N(CC(=O)NCC1CCCO1)S(=O)(=O)c1ccccc1 (centres unmarked),11.2
6,Cc1ccc(C(=O)Nc2nsc(-c3ccccc3)n2)cc1,-0.95
7,CCOC(=O)N1CCN(c2c(NC3CCC(C)CC3)c(=O)c2=O)CC1 (centres unmarked),1.73
8,O=C(c1ccco1)N1CCN(C(=O)c2c3c(nc4ccccc24)C(=O)N(C2CCCCC2)C3)CC1,-0.12
9,Cc1ccc(S(=O)(=O)n2nc(C)cc2C)cc1,2.45
10,CC(=O)Nc1ccc(-c2cc3ccccc3o2)cc1,2.09
11,Cc1ccc(CN(CC(=O)N2CCCCCC2)S(=O)(=O)c2ccc(Br)cc2)cc1,-4.33
12,COc1ccc2nc3sc(C(=O)NCCCN4CC(C)CC(C)C4)cc3cc2c1 (centres unmarked),-2.44
13,CCCOc1ccc(-c2nc3s/c(=C\c4cc(OC)ccc4OC)c(=O)n3n2)cc1,3.8
14,c1ccc(-c2nc(N3CCCCCC3)nc(-n3ccnc3)n2)cc1,-2.5
15,Cn1c(CCc2ccccc2)nnc1SCc1nc(-c2cccs2)no1,-7.86
16,O=C(Nc1ccccc1C(=O)N1CCCCC1)c1ccc(Cl)cc1,0.563
17,CC1CN(S(=O)(=O)c2ccc(C3CCCCC3)cc2)CC(C)O1 (centres unmarked),0.457
18,C=CCOC(=O)C1=C(C)N=C(C)/C(=C(/O)OCC=C)C1c1cccs1 (centres unmarked),-3.75
19,COc1ccc(-c2nc3n(n2)C(c2ccc4c(c2)OCO4)C2=C(O)CC(C)(C)CC2=N3)cc1 (centres unmarked),3.59
20,c1ccc2c(OCCCCCN3CCCC3)cccc2c1,0.273
21,CC(C)c1nnc(NC(=O)c2cccc([N+](=O)[O-])c2)s1,0.0345
22,C=CCOC(=O)c1sc(N2C(=O)c3oc4ccccc4c(=O)c3C2c2ccc(C)o2)nc1C (centres unmarked),2.16
23,Cc1nc2c(-c3ccccc3)c(C)nn2c(N)c1-c1ccccc1,1

# — paper PMC6919601, “Identification of Plasmodium dipeptidyl aminopeptidase allosteric inhibitors by high throughput screening” (PLoS ONE, 2019)
